Measurements: patent publication US20030027764A1

Molecular target: Bee venom (Apis melifera) PLA2 (Apis mellifera) (UniProt P00630)
Test: cell-based or functional assay

recombinant Python Antitoxic Factor (PAF), later renamed Phospholipase Inhibitor from Python (PIP), (from UniProt Q9I8P7 20-201)
% Inhibition (mean) of paw oedema; Bee venom PLA2 (1 µg) + PAF (50 µg): 36.8% | % Inhibition (mean) of paw oedema; Bee venom PLA2 (1 µg) + PAF (100 µg): 78.2%
